Data published in paper PMC8310278.
Results are given in words; binding and its absence hold for the method and conditions named. Binding seen in cells or lysates may run through a third protein. Some binding calls cover weakened binding; strength is not graded here. For part of these data: Tags and fused reporters may be left off the sequences shown.

Columns and labels:
Test in all cases: co-IP
[1] = target: Full-length NSP4 of RV-SA11, expressed from pcDNA6/V5-His B (simian rotavirus strain SA11) (UniProt A2T3Q0)
[2] = target: T1, FLAG-tagged full-length viperin (wild type) (human) (UniProt Q8WXG1)
T1 sequence: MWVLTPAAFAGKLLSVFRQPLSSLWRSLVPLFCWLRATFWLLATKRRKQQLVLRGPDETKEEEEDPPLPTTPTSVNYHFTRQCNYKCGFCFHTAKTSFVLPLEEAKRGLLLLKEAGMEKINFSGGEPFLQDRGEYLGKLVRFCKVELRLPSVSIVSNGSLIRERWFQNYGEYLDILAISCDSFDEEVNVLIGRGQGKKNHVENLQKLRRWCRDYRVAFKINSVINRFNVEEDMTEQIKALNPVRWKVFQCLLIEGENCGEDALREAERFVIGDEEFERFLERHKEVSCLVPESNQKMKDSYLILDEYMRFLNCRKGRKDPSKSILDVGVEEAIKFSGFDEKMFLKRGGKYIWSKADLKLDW

[3] = target: FLAG-tagged viperin ΔC-319 (lacking both a radical SAM domain and a C-terminal domain) (human) (UniProt Q8WXG1)
[4] = target: FLAG-tagged viperin ΔN-210 (lacking both an N-terminal domain and a radical SAM domain) (human) (UniProt Q8WXG1)
[5] = target: T2, FLAG-tagged viperin ΔN-42 (lacking an N-terminal domain) (human) (UniProt Q8WXG1)
T2 sequence: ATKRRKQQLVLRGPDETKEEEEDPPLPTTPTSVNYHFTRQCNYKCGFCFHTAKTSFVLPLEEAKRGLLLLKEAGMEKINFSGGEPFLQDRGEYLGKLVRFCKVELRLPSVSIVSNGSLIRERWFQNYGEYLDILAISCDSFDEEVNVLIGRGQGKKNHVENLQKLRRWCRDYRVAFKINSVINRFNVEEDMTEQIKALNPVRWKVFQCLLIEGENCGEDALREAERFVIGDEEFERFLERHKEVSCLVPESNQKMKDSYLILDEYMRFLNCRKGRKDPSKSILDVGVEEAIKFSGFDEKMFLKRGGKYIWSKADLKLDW

[6] = target: FLAG-tagged viperin ΔC-151 (lacking a C-terminal domain) (human) (UniProt Q8WXG1)
[7] = target: T3, Viperin (virus inhibitory protein, endoplasmic reticulum-associated, interferon inducible) (human (endogenous in HT-29)) (UniProt Q8WXG1)
T3 sequence: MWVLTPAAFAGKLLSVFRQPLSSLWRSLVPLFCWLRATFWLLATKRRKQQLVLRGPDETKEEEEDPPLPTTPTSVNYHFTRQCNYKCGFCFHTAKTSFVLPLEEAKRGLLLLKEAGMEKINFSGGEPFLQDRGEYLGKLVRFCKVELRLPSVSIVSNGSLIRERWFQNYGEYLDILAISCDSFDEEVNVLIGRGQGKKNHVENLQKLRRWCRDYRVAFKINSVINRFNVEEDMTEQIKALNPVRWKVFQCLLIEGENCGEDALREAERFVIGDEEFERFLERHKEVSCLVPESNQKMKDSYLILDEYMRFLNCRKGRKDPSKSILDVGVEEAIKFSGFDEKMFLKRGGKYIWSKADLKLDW

[8] = target: Rotaviral non-structural protein 4 (NSP4) of RV-SA11, from infection (simian rotavirus strain SA11) (UniProt A2T3Q0)

With “FLAG-tagged viperin ΔC-319 (lacking both a radical SAM domain and a C-terminal domain) (from UniProt Q8WXG1 1-42) (domain or fragment)” the binding [1] was “no binding”.

“FLAG-tagged viperin ΔN-210 (lacking both an N-terminal domain and a radical SAM domain) (from UniProt Q8WXG1 211-361) (domain or fragment)” was tested, and the binding [1] was “no binding”.

With “Full-length NSP4 of RV-SA11, expressed from pcDNA6/V5-His B (from UniProt A2T3Q0 1-175)” the binding [2] was “binds”, the binding [3] was “no binding” and the binding [4] was “no binding”. The binding [5] was “binds” and the binding [6] was “no binding”.

With “FLAG-tagged viperin ΔC-151 (lacking a C-terminal domain) (from UniProt Q8WXG1 1-210) (domain or fragment)” the binding [1] was “no binding”.

In the case of “Rotaviral non-structural protein 4 (NSP4) of RV-SA11, from infection (from UniProt A2T3Q0 1-175)”, the binding [7] is reported as “binds”.

B1: Viperin (virus inhibitory protein, endoplasmic reticulum-associated, interferon inducible) (protein, UniProt Q8WXG1 1-361)
chain: MWVLTPAAFAGKLLSVFRQPLSSLWRSLVPLFCWLRATFWLLATKRRKQQLVLRGPDETKEEEEDPPLPTTPTSVNYHFTRQCNYKCGFCFHTAKTSFVLPLEEAKRGLLLLKEAGMEKINFSGGEPFLQDRGEYLGKLVRFCKVELRLPSVSIVSNGSLIRERWFQNYGEYLDILAISCDSFDEEVNVLIGRGQGKKNHVENLQKLRRWCRDYRVAFKINSVINRFNVEEDMTEQIKALNPVRWKVFQCLLIEGENCGEDALREAERFVIGDEEFERFLERHKEVSCLVPESNQKMKDSYLILDEYMRFLNCRKGRKDPSKSILDVGVEEAIKFSGFDEKMFLKRGGKYIWSKADLKLDW
In the case of B1, the binding [8] is reported as “binds”.

B2: FLAG-tagged full-length viperin (wild type) (protein, UniProt Q8WXG1 1-361)
chain: MWVLTPAAFAGKLLSVFRQPLSSLWRSLVPLFCWLRATFWLLATKRRKQQLVLRGPDETKEEEEDPPLPTTPTSVNYHFTRQCNYKCGFCFHTAKTSFVLPLEEAKRGLLLLKEAGMEKINFSGGEPFLQDRGEYLGKLVRFCKVELRLPSVSIVSNGSLIRERWFQNYGEYLDILAISCDSFDEEVNVLIGRGQGKKNHVENLQKLRRWCRDYRVAFKINSVINRFNVEEDMTEQIKALNPVRWKVFQCLLIEGENCGEDALREAERFVIGDEEFERFLERHKEVSCLVPESNQKMKDSYLILDEYMRFLNCRKGRKDPSKSILDVGVEEAIKFSGFDEKMFLKRGGKYIWSKADLKLDW
In the case of B2, the binding [1] is reported as “binds”.

B3: FLAG-tagged viperin ΔN-42 (lacking an N-terminal domain) (domain or fragment, UniProt Q8WXG1 43-361)
chain: ATKRRKQQLVLRGPDETKEEEEDPPLPTTPTSVNYHFTRQCNYKCGFCFHTAKTSFVLPLEEAKRGLLLLKEAGMEKINFSGGEPFLQDRGEYLGKLVRFCKVELRLPSVSIVSNGSLIRERWFQNYGEYLDILAISCDSFDEEVNVLIGRGQGKKNHVENLQKLRRWCRDYRVAFKINSVINRFNVEEDMTEQIKALNPVRWKVFQCLLIEGENCGEDALREAERFVIGDEEFERFLERHKEVSCLVPESNQKMKDSYLILDEYMRFLNCRKGRKDPSKSILDVGVEEAIKFSGFDEKMFLKRGGKYIWSKADLKLDW
With B3 the binding [1] was “binds”.
